According to the BET-seq Pho4 binding data (Le et al. 2018):
This is one part of the list. Values were computed here from the reads of four pooled replicates and scatter widely.

Each sequence was assayed against T1, Pho4 (S. cerevisiae) (UniProt P07270) (assay: relative binding free energy (BET-seq); higher = weaker binding). Conditions: reference: library average.
T1 sequence: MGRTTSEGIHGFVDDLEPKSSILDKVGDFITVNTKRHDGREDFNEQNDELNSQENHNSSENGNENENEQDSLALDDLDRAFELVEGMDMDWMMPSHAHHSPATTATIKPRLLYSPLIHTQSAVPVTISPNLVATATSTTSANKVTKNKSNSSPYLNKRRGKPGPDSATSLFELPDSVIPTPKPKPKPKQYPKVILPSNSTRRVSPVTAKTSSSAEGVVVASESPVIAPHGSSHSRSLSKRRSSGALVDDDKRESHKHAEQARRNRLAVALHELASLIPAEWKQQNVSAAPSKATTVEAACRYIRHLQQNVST

Sequence | relative binding free energy [kcal/mol]
CAGGTCACGTGACGGT | 0.2
AGTCACACGTGACGGG | 0.31
TGGTACACGTGGTCAG | -0.01
AAGAGCACGTGACGGT | 0.03
AGGGTCACGTGTGAAG | 0.16
TTACGCACGTGAAGGA | 0.28
GGTAGCACGTGGCGGG | -0.11
CTGCGCACGTGGTAGT | -0.24
TAGTTCACGTGAAATA | 0.52
TGGTGCACGTGGTCGC | -0.09
TTGGACACGTGTCAGT | 0.06
TGGATCACGTGAAGGC | 0.39
TGAGACACGTGGCTTT | 0.02
GTGTTCACGTGGCGTA | 0.21
GTCGTCACGTGAGGAT | 0.24
GGGTCCACGTGTGGTT | 0.05
ATGGACACGTGCGTTT | -0.02
GGAGACACGTGTTGAA | 0.18
ATGTGCACGTGTCTGA | -0.19
TTAATCACGTGAGGTT | 0.33
TTGTACACGTGTCATT | 0.04
TTCAGCACGTGTTGTT | -0.1
ATGACCACGTGGGATG | -0.06
GTGGTCACGTGATGAT | 0.23
ATATTCACGTGTCGGG | 0.28

Sequence | relative binding free energy [kcal/mol]
CGGATCACGTGGGCAG | -0.02
ATTTACACGTGTTTTT | 0.14
GGTGTCACGTGCGACT | 0.16
TCTTCCACGTGGTTGT | 0.06
AGATACACGTGTAGCT | 0.23
TGTAACACGTGCGTTG | -0.03
TTATGCACGTGTCTGG | -0.02
TGGTGCACGTGCTCAT | -0.03
TGATTCACGTGAAATG | 0.3
GTAATCACGTGGCGTG | -0.01
ATTCACACGTGGTGTG | -0.05
GGGGCCACGTGTTGAA | 0.04
ACGTTCACGTGGTATA | 0.17
CGGCCCACGTGGGGGG | -0.32
CGTCGCACGTGGGATG | -0.22
AAGTGCACGTGGGAGG | -0.1
CATTGCACGTGTTGGG | 0
AGTGTCACGTGCATAT | 0.02
CTTGGCACGTGAACGG | 0.12
GTTAACACGTGGTTAA | 0.07
GGGATCACGTGGATGG | 0.25
AGGCACACGTGGTGCG | -0.12
TGTCACACGTGGATGG | -0.01
GACGTCACGTGAGTGG | 0.38
TGCCGCACGTGCGGTG | -0.03

Sequence | relative binding free energy [kcal/mol]
TGCTGCACGTGGACGG | -0.09
AGGGGCACGTGGATGG | -0.08
ATTGTCACGTGGGATG | 0
CGGATCACGTGTTGGC | 0.24
ATTTACACGTGAGATT | 0.32
TGAATCACGTGGCGGA | 0.14
GTTTACACGTGTCTTG | 0.17
TTGTGCACGTGTAGTA | -0.03
ATAAACACGTGGGGGG | -0.2
AATTGCACGTGGTGGG | -0.1
AAAATCACGTGTGGGA | 0.28
TGTCTCACGTGATTGT | 0.29
CTAAACACGTGGGTGT | -0.14
GAGATCACGTGGTAAG | 0.23
CGTATCACGTGAGGCT | 0.33
AGGCACACGTGTAGTT | 0.11
TGGTGCACGTGAAACT | 0.24
TGATGCACGTGAGGGC | 0.03
ATATGCACGTGGTACG | -0.15
GGAGTCACGTGGACTG | 0.16
TGTCTCACGTGTATTG | 0.14
CGGGACACGTGAACGG | 0.45
GTATTCACGTGGATTA | 0.3
GAGTACACGTGTTTGA | 0.16
AGGTTCACGTGGTCTG | 0.32

Sequence | relative binding free energy [kcal/mol]
AATGACACGTGAGGTT | 0.31
GGTTCCACGTGTTGGA | 0.16
TGTGTCACGTGACAAG | 0.29
GAAATCACGTGGGCTG | 0.12
TGGTACACGTGTGGCG | 0.14
TAATGCACGTGAGAAT | 0.32
CATGTCACGTGCATGT | 0.09
AAGGGCACGTGTCGTA | -0.17
AAGAGCACGTGAAGGG | 0.25
TGCTTCACGTGGGGTA | 0.01
TATGTCACGTGGTCGC | 0.08
TTTAACACGTGGAGGT | 0.04
TTGCGCACGTGATTGG | 0.21
GTAATCACGTGTGTAT | 0.37
AGGTGCACGTGTTTGA | 0
AGTACCACGTGGCGGG | -0.18
CGAGTCACGTGGGTTA | 0
GGTAGCACGTGCTGAG | -0.04
AGGGACACGTGTCGTT | -0.08
TTGCGCACGTGTAGGA | -0.06
ACGGCCACGTGGGTGG | -0.26
ATATACACGTGATATG | -0.01
TATTGCACGTGCATAG | -0.08
GTGGGCACGTGAACTT | 0.16
ATGGTCACGTGGGTGG | 0.06

Sequence | relative binding free energy [kcal/mol]
GTGAGCACGTGAACTG | 0.3
GGACGCACGTGAAGGT | 0.33
ACTGTCACGTGAGGTA | 0.26
GAGGGCACGTGCGGCG | -0.28
TGAGGCACGTGATGGT | 0.02
CTAGGCACGTGCGTAG | -0.16
TGATACACGTGGGAAG | -0.08
ATTTACACGTGGGTTA | -0.01
AATGGCACGTGGGTCG | -0.12
AGTGACACGTGGAGGG | 0.04
TCTGTCACGTGTGTAC | 0.11
CTAGGCACGTGGGGTT | -0.27
TTCTACACGTGGGTAG | -0.08
CAGTGCACGTGAAGTT | 0.28
GCTTGCACGTGTGTGG | 0.02
AGCGTCACGTGGAGGG | 0.06
ATTATCACGTGTGCGG | 0.03
GTGTTCACGTGACAGG | 0.37
AAATACACGTGGGATG | -0.07
TCACGCACGTGTTGGG | -0.05
AAAGTCACGTGAGGAG | 0.25
CTTGTCACGTGGGCGC | 0.06
TTCTACACGTGTTGGC | 0.26
GGTGGCACGTGAGACG | 0.18
TGTGGCACGTGCATGA | -0.3

Sequence | relative binding free energy [kcal/mol]
GCCGGCACGTGAGGTT | 0.27
GGCTGCACGTGCTTGG | -0.01
AGTTTCACGTGCAAGT | 0.31
AGACTCACGTGGTTTT | 0.09
TTTGGCACGTGTTGTG | -0.02
TGTACCACGTGTTATT | -0.17
GTTGCCACGTGGGAGA | -0.11
ATTGTCACGTGCGGCG | -0.1
TGATGCACGTGAAAGT | 0.21
TTTTTCACGTGATTAG | 0.32
GTGTTCACGTGGGGCA | 0.1
CAGGGCACGTGGATCG | 0.04
TTGGTCACGTGGATTC | 0.16
TGGGGCACGTGTGTAA | -0.09
GGGCACACGTGGGTCG | -0.07
GTGAACACGTGATGGG | 0.15
TGGGACACGTGTATGA | -0.08
CTGGGCACGTGGGTGC | -0.29
TTCTTCACGTGAGTTG | 0.42
CTATCCACGTGGGGGG | -0.25
TTACGCACGTGATGTG | -0.09
